The supplement of paper PMC3334620
Over roughly 33,000 sequences, “E-score (-0.5 to 0.5)” has its median near -0.021; the highest 2% begin near 0.32. This is one part of the list.

molecular target: T1, Zap1 (UniProt P47043); experiment: PBM E-score (8-mer binding enrichment) (E-score (-0.5 to 0.5)); higher = stronger / more preferred TF binding; most listed sequences are background and not binding sites; conditions: protein concentration: 200 nM; construct: GST-full length
T1 sequence: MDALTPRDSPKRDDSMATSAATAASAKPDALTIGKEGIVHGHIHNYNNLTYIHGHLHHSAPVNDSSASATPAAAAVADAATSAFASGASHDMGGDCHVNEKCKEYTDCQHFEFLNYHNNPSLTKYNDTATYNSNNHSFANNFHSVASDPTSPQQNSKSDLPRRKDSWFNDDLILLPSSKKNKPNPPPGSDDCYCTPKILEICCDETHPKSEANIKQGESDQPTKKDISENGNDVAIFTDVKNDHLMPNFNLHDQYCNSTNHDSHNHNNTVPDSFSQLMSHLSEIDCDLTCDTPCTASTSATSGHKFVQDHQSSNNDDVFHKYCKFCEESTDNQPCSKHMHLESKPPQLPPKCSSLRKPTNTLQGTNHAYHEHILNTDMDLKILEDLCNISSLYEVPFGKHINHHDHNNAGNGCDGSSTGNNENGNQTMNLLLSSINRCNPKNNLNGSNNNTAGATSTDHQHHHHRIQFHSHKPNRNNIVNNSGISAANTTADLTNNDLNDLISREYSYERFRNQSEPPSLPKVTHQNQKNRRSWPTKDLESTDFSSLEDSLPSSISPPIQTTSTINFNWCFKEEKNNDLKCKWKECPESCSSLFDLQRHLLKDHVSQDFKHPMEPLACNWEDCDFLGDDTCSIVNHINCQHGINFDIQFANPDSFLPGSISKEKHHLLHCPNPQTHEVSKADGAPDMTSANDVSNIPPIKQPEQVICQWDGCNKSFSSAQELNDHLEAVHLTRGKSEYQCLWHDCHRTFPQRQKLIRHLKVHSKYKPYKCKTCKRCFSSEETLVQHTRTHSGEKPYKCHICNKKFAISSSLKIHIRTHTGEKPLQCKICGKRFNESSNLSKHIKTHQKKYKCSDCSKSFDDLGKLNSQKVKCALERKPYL
Method in brief: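 PURExpress in vitro transcription/translation supplied GST-tagged yeast transcription factors, either full-length or DNA-binding domain. Applied at about 100-200 nM to universal all-10-mer Agilent arrays double-stranded by primer extension, the bound protein was detected with fluorescent anti-GST. E-scores, modified Wilcoxon-Mann-Whitney statistics, were given by the Universal PBM Analysis Suite to ungapped eight-base words pooled with their reverse complements after masliner normalisation.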

Sequence	PBM E-score
CCCTGCCC	-0.00322
CAAGCCGC	-0.19
AACGATCC	-0.159
AGTAAATG	0.174
ACTTTGAG	0.0948
ACGGTACA	0.213
AATGGTCG	0.0699
AAGGGGGT	-0.271
CAGTCCTC	-0.271
ATCCCGTC	-0.108
TCATGAGA	0.0926
CATGACGA	0.00891
CAAAGGAG	-0.175
GACGGCCA	0.0006
AAACGTGT	-0.178
ATAAAGAG	-0.118
CACTGATG	-0.0195
GCGCCGTA	-0.0278
ACTTATAA	0.136
TCTGAGAA	-0.0814
ATAAGTCA	0.161
CAAGCCCG	-0.266
AGTAGCAG	-0.0921
ATCGCGAG	0.13

Sequence	PBM E-score
CCAATACA	-0.0592
GATTGTAC	-0.134
GAAGTTAC	0.175
CACCATAA	0.0248
TACCAGCA	0.0701
ATCATTCG	0.0757
GGGAGCAC	-0.166
GTCTAGGA	-0.27
AGGTGTGG	-0.182
ACCTGTGA	0.182
GTATTTTA	0.224
AGATGGCG	-0.113
AGATACGG	0.0225
TAAAGGGA	0.145
AAGTCCGA	-0.296
GATATAGC	-0.0772
CAATCGAA	0.0619
CAAGCCCA	-0.295
GTTTCTCA	-0.0604
TAGAGGCA	-0.0851
CACCATCA	-0.088
AAGCTGGA	-0.0922
AACTGGTG	0.0774
AAGAGACC	0.129

Sequence	PBM E-score
GGGATGTA	-0.0819
CTCATGGA	0.0246
ATCCAATG	-0.237
ACGACCGA	-0.116
GTATTGAC	-0.0601
GGGGAAAC	0.0976
GACACTCC	-0.118
CCAGGAGC	-0.263
GACACATC	0.0208
AAGAGCCA	-0.0471
CCTTTTAA	0.119
CTGCGATA	0.159
AAGGGCAC	-0.0159
GCATTGCA	-0.0539
CGCGGCTA	0.0396
CGGAGTCC	0.0173
CTCTAAAG	0.1
AGCTCATG	-0.182
ACTCATAA	0.00507
ACGCAACC	0.316
CTGACGCC	-0.16
AAAGGTAG	0.247
CTGCCCCC	-0.356
ACCACCTA	0.0272

Sequence	PBM E-score
ACGCGGTC	0.155
CACTGAAC	0.135
ATCCCTAG	0.0856
AGTATATA	0.284
GCGATGGA	0.0884
AGGACTCC	-0.232
AGCTTGCC	-0.356
AACGAGCC	-0.189
CGCCCCAC	-0.072
CCACTAGA	-0.11
CCCACGAG	-0.0323
AGACTGTC	-0.334
CCGGCTAC	-0.0341
ACGTGGAG	-0.208
CCTCTTCG	-0.137
ATGCCCTA	-0.0835
CTTGCCTC	-0.105
CCAAATAG	0.111
CGGTGTAC	0.0599
CATAAATA	0.00367
CTGAAAAC	0.0214
ATACTGAC	0.111
